# Measurements: publication PMC4336329 (PLoS ONE, 2015)
# About 2,200 (0.71%) of roughly 310,000 compounds showed an effect of 50% or more. Effects have a minus sign here. Some of the results follow.
# Target: human ether-à-go-go-related gene (hERG) potassium channel (human, UniProt Q12809)
# Assay: primary screen, population patch clamp on CHO cells stably expressing hERG
# human ether-à-go-go-related gene (hERG) potassium channel, sequence (Q12809 whole entry, looked up): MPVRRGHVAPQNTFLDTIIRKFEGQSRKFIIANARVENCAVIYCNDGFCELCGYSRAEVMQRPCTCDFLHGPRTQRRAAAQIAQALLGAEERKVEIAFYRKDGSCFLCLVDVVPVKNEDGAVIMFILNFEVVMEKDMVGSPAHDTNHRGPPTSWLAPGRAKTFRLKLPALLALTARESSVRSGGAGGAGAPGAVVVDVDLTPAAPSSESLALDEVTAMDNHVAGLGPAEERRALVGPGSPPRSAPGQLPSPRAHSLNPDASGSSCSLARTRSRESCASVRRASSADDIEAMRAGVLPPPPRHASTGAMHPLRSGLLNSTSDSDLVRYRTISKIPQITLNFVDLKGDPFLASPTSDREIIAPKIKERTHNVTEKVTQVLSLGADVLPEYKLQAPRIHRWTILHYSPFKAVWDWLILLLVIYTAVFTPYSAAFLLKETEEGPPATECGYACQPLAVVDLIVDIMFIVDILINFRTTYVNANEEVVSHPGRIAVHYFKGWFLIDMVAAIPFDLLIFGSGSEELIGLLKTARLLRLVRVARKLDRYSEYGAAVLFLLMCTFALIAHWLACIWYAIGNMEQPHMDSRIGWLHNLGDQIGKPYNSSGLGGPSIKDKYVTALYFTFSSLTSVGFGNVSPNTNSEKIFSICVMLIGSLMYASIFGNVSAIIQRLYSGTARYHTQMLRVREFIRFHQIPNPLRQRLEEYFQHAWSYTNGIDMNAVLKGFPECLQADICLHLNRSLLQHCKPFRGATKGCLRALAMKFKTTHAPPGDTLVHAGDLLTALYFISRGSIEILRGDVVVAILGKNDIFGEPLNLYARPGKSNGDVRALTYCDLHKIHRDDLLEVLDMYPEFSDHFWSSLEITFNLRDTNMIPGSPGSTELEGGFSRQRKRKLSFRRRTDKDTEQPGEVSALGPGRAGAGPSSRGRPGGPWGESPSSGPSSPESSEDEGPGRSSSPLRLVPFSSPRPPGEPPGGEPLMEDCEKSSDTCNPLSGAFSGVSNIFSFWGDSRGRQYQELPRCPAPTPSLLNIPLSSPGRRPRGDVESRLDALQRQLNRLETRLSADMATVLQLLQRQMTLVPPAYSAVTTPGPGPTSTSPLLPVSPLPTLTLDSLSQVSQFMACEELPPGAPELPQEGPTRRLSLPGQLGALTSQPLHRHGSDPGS
row,SMILES,"hERG current change (%, negative = inhibition) at 1uM [%]"
1,CCCCC(=O)Nc1c(C)cc(C)cc1Cl,13.5
2,Cc1ccc2nc(SCC(=O)NCC3CCCO3)c(C#N)cc2c1 (stereo not shown),14.7
3,Cc1ccc(C(=O)NC(O)C(Cl)(Cl)Cl)cc1 (stereo not shown),10.5
4,FC(F)(F)c1cc(Cl)c2nnc(-c3ccccn3)n2c1,5.06
5,COc1ccc(C)cc1NC(=O)CNC(=O)[C@@H]1Cc2ccccc2CN1,-1.48
6,CC[n+]1ccccc1/C=C/Nc1ccccc1.[I-],-5.67
7,COC(=O)CNC(=O)c1cccc(Cl)c1,8.85
8,O=C(CSc1nnc(CNC(=O)c2ccco2)o1)Nc1ccc(Cl)cc1,15.9
9,CCCCNC(=S)NNC(=O)CCn1nc(C)c(Br)c1C,11
10,FC(F)(Cl)c1nnc2ccc(Cl)nn12,17.8
11,CN(C)c1ccc(-c2cc(O)c3ncccc3c2)cc1.O=C(O)C(F)(F)F,15.8
12,CC(=O)Nc1ccccc1NC(=O)C/C(C)=N/NC(=O)c1ccccn1,12.6
13,c1ccc2c(NCCCN3CCOCC3)c3ccccc3nc2c1,-54.2
14,CN(C)C(=O)CSc1n[nH]c(=O)n1CCc1ccccc1,15.1
15,CN(C(=O)c1coc(=O)c2ccccc12)c1ccc(Br)cc1,6.53
16,O=C(Nc1ccccc1Cl)C1Cc2ccccc2O/C1=N\O (stereo not shown),12
17,CC(C)(C)c1ccc(N2C(=O)CC(c3ccccc3)C2=O)cc1 (stereo not shown),13.6
18,COc1ccc(C)cc1NC(=O)CSc1nnc2ccc(-c3ccccn3)nn12,10.4
19,O=C(NCC1COc2ccccc2O1)c1cccs1 (stereo not shown),4.27
20,O=C(CSc1ncnc2c1cnn2-c1ccc(Cl)cc1)NCc1ccc2c(c1)OCO2,4.76
21,C=CCn1cc(C(C)=O)c(=O)[nH]c1=O,25.9
22,Cc1ccccc1NC(=S)Nc1ccc2[nH]c(=O)[nH]c2c1,17.7
23,Cc1cc(C)n(-c2nc3ccccc3c(=O)n2OCC#N)n1,6.97

row,SMILES,"hERG current change (%, negative = inhibition) at 1uM [%]"
1,CC1CCC(NC(=O)c2nc(Cn3ccc([N+](=O)[O-])n3)no2)CC1 (stereo not shown),-10.6
2,O=C(NCCN1CCC(Cc2ccccc2)CC1)C1CCCN(S(=O)(=O)c2cnc[nH]2)C1 (stereo not shown),12.4
3,Cc1nc(NC(=S)NC(=O)c2ccccc2)sc1C,6
4,CC(OC(=O)c1ccc2ncsc2c1)C(=O)NCc1ccccc1 (stereo not shown),9.98
5,COC(=O)c1ccc(COC(=O)c2nn(C)c(=O)c3ccccc23)cc1,20.7
6,CC1NC(=O)NC1CCCCCC(=O)NCCc1ccccc1 (stereo not shown),5.54
7,COc1ccc(CC(=O)NC(=S)Nc2ccc(S(=O)(=O)NC(C)(C)C)cc2)cc1,16.8
8,O=C(CCCNC(=O)c1ccc(Cl)cc1)Nc1ccc(Br)cc1,10.1
9,COc1ccc(NC(=O)CSCC(=O)N2CCCc3ccccc32)cc1,17.3
10,O=C(NCCSCc1ccccc1)c1ccccc1,5.61
11,CN(C(=O)CSc1nncn1-c1ccccc1)c1ccccc1,10.5
12,N#Cc1ccccc1CSc1nc2ccc(NC(=O)c3ccccc3C(=O)O)cc2s1,12.7
13,C[C@@H](C(=O)NCc1ccccc1)[C@H]1C[C@]1(C)[C@H](NC(=O)OCc1ccccc1)c1ccccc1,9.74
14,Cc1ccc2c(CN3C(=O)NC(C)(c4ccc5c(c4)OCO5)C3=O)cc(=O)oc2c1 (stereo not shown),8.31
15,Cc1ccc(NC(=O)[C@@H]2CCCN2S(=O)(=O)c2ccccc2F)cc1,9.97
16,Cc1ccc(C(=O)N/N=C\c2ccc(-c3ccc(Cl)c(Cl)c3)o2)cn1,-10.3
17,Cc1ccc(CNC(=O)c2c(-c3ccccc3Cl)noc2C)cc1,16
18,CCC1S/C(=N/N=C/c2ccco2)N(Cc2ccc(F)cc2)C1=O (stereo not shown),10.2
19,Cc1cc(NC(=O)Nc2ccc(Cl)cc2)no1,11.7
20,COc1ccccc1-n1nnnc1SCc1cc2c(cc1Br)OCO2,-7.61
21,CCC(NC(=S)NCc1ccccc1)C(=O)O (stereo not shown),15.2
22,CCC1CCCCN1C(=O)CSc1nnc(CNC(=O)COc2ccc(Cl)cc2)o1 (stereo not shown),0.44
23,COC(=O)c1[nH]c2cccc(OC)c2c1NC(=O)CN1CCC(C(N)=O)(N2CCCCC2)CC1,6.17
